57 molecules from paper PMC4336329 (PLoS ONE, 2015) can be followed below.

Among all 310,000 compounds or so, about 14,000 (4.5%) showed an effect of 50% or more. Effects have a minus sign here. The list shows a part of the results.
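Further: peak tail current of the secondary pulse compared with the same well before compound.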

In this assay the target is human ether-à-go-go-related gene (hERG) potassium channel (human, UniProt Q12809). In words: primary screen, population patch clamp on CHO cells stably expressing hERG.
Chain of human ether-à-go-go-related gene (hERG) potassium channel (Q12809 whole entry, looked up): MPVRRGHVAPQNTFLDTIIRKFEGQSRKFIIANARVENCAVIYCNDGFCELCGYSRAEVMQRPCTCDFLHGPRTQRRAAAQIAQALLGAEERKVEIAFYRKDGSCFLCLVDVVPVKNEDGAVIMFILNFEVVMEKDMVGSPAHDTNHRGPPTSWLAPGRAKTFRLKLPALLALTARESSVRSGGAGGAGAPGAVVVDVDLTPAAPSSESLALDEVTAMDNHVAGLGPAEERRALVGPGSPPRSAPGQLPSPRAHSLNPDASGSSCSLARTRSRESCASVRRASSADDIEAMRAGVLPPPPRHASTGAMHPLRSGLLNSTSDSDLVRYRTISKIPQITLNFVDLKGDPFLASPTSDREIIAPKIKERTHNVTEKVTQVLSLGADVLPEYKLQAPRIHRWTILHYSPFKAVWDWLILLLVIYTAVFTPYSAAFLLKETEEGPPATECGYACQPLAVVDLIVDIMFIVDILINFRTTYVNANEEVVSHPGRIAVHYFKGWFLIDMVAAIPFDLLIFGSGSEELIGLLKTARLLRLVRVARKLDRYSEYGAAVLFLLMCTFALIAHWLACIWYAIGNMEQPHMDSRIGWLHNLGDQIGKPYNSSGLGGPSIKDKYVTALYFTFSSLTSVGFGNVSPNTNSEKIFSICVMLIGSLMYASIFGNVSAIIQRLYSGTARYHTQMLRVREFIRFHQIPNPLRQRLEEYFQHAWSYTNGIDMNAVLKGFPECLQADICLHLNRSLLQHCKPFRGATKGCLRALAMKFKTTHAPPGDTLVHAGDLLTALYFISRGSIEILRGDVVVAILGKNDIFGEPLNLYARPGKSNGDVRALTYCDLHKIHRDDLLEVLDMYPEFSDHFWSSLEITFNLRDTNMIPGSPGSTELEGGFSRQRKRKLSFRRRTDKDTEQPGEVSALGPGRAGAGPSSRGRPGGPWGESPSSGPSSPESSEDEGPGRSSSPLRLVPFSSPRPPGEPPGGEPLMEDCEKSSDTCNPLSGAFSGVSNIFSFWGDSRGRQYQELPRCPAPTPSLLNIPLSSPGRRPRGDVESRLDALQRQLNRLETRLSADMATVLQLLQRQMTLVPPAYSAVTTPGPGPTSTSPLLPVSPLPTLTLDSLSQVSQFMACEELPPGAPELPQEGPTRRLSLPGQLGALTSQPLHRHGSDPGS
Consider `CCCN1C2CCCC1CC(NC(=O)c1cccc(OC)c1)C2` (stereo not drawn), for which the “hERG current change (%, negative = inhibition) at 10uM” value was -16.4%.
The result for `S=C(NCc1ccccn1)Nc1cccc(Cl)c1` reads 2.65%.
In the case of `O=C(NCc1ccccc1)C1CCCN(C(=O)Nc2ccccc2)C1` (stereo not drawn) it was 12.9%.
For `CC(=O)Nc1ccc(NC(=S)Nc2ccccc2)cc1`, the “hERG current change (%, negative = inhibition) at 10uM” value is recorded as -19.5%.
In the case of `Cc1ccc(C(=O)NC(=S)NCc2ccco2)cc1` it was 13.7%; in that of `CCOC(=O)c1ccc(NC(=O)c2cc(S(=O)(=O)N3CCOCC3)cn2C)cc1`, 4.76%; in that of `O=C(CCNS(=O)(=O)c1c(Cl)cccc1Cl)N1CCCC1`, 4.43%.
In the case of `CC(=O)Nc1cccc(NC=C(C#N)C#N)c1`, the “hERG current change (%, negative = inhibition) at 10uM” value is recorded as 24.3%.
In the case of `Cc1nccn1-c1cc(C(C)(C)C)nc2c(-c3ccccc3)cnn12` it was -1.51%.
With `CCN(CC)S(=O)(=O)c1ccc(-c2nnc(SCC(=O)c3ccc(OC)cc3)o2)cc1`, the “hERG current change (%, negative = inhibition) at 10uM” value came to 4.87%.
The result for `O=C(N/N=C/c1ccccc1F)c1csc2c1CCCC2` reads -2.82%; that for `COc1ccc(S(=O)(=O)N2CCCCCC2)cc1C(=O)N(C)Cc1c(F)cccc1Cl`, -49.8%; that for `COc1ccc(N=Nc2ccc3ccccc3c2)c(O)c1`, 2.12%.
For the molecule `CC(=O)c1ccc(-c2nnc(CCC(=O)N3CCCC(C(=O)CC(C)C)C3)o2)s1` (stereo not drawn), the “hERG current change (%, negative = inhibition) at 10uM” value is reported as -8.98%.
As for `O=S(=O)(NCc1ccco1)c1cccc2cccnc12`, the “hERG current change (%, negative = inhibition) at 10uM” value is recorded as -22.3%.
In the case of `CCOC(=O)c1c(C)[nH]c(C(=O)COC(=O)c2cnc(C)cn2)c1C` it was 2.47%; in that of `O=C(O)CC(NC(=O)COc1ccccc1)c1cccc([N+](=O)[O-])c1` (stereo not drawn), 18.8%.
In the case of `O=C(N/N=C\c1cccc([N+](=O)[O-])c1O)C1COc2ccccc2O1` (stereo not drawn) it was 1.08%; in that of `Cc1nn(Cc2ccccc2)c(Cl)c1C(=O)OCc1nnc(-c2ccccc2)o1`, -9.19%.
With `CC1CCCC(C)N1c1nnc(NC(=O)Cn2c(=O)oc3ccccc32)s1` (stereo not drawn), the “hERG current change (%, negative = inhibition) at 10uM” value was -4.03%.
In the case of `COc1cccc(N2C(=O)CC(N3CCN(c4ccc([N+](=O)[O-])cc4)CC3)C2=O)c1` (stereo not drawn) it was -52.1%; in that of `O=C(N/N=C/c1ccoc1)c1cc(O)cc(O)c1`, 13.4%.
In the case of `CCN(CCCNC(=O)C1CCC(=O)N1Cc1ccc(C)cc1)c1cccc(C)c1` (stereo not drawn) it was -24.9%; in that of `O=C(N=C1N=C2C=CC(Br)=CN2Cc2ccccc21)c1ccc([N+](=O)[O-])cc1[N+](=O)[O-]`, 10.5%.
In the case of `Cc1ccc(N2C(=O)NC(=O)/C(=C\c3ccoc3)C2=O)cc1` it was 22%; in that of `CC1(C)CC(=O)C=C(Nc2ccccc2C#N)C1.Cl`, 14%; in that of `O=C(OCCN1C(=O)c2ccccc2C1=O)c1ccc(S(=O)(=O)N2CCCCCC2)cc1`, 1.84%.
As to `COc1ccc(-c2nn(-c3ccccc3)cc2C(=O)O)cc1N`, the “hERG current change (%, negative = inhibition) at 10uM” value is listed as 5.05%.
The result for `CCOC(=O)N/N=C/c1ccc(F)cc1` reads 1.6%; that for `Cn1c(CCN2CCOCC2)nc2cc(NC(=O)COc3ccccc3)ccc21`, -15.1%.
In the case of `Cc1ccccc1NC(=S)NCc1ccc(F)cc1` it was 12.3%; in that of `CCCn1c(=N)c(C#N)cc2c(=O)n3ccccc3nc21`, -9.89%.
In the case of `COc1cc(C)c(NC(=S)Nc2cccc(Cl)c2C)cc1OC` it was 11.1%.
As to `CCS(=O)(=O)Nc1cccc(C(=O)CC2(O)C(=O)Nc3ccccc32)c1` (stereo not drawn), the “hERG current change (%, negative = inhibition) at 10uM” value was determined as 11.5%.
In the case of `Cc1ccc(C)n1-c1ccc(C(=O)Nc2ccccc2)cc1` it was -16.2%; in that of `CN(C)C(=O)Oc1ccc(OCc2cccc[n+]2C)cc1.Cc1ccc(S(=O)(=O)[O-])cc1`, -5.87%; in that of `COc1ccc(/C=N/N=C2/C(=O)Nc3ccccc32)cc1O`, 15.7%.
For `CO/N=C/c1ccc(Sc2ccccc2)c([N+](=O)[O-])c1`, the “hERG current change (%, negative = inhibition) at 10uM” value came out at 14%.
Turning to `Cc1onc(-c2ccccc2)c1C(=O)Nc1ccc(S(=O)(=O)N2CCCCC2)cc1`, the “hERG current change (%, negative = inhibition) at 10uM” value is given as 15.6%.
In the case of `COc1ccc(N2CCN(C(=O)Nc3ccccc3Cl)CC2)cc1` it was 4.49%.
In the case of `N#CCCN1CCN(S(=O)(=O)c2ccc(S(=O)(=O)N3CCCC3)cc2)CC1` it was 4.66%.
The result for `O=C(Nc1ccc(F)cc1)c1oc2ccccc2c1NC(=O)C1CCCC1` reads -4.15%; that for `CCOC(=O)C1(CCSC)NC(c2ccco2)C2C(=O)N(CC)C(=O)C21` (stereo not drawn), 9.77%.
For the molecule `C/C(=N\Nc1nc(N2CCOCC2)nc(N2CCOCC2)n1)c1ccc([N+](=O)[O-])cc1`, the “hERG current change (%, negative = inhibition) at 10uM” value was found to be 7.16%.
Regarding `Cc1n[nH]c(=O)c2c(NC(=O)CSc3nc4ccccc4c(=O)n3-c3ccc(OC(F)F)cc3)oc(C)c12`, the “hERG current change (%, negative = inhibition) at 10uM” value is reported as -59.2%.
Consider `CCOC(=O)c1cnc2cc(F)c(F)cc2c1N1CCN(C)CC1`, for which the “hERG current change (%, negative = inhibition) at 10uM” value is recorded as -16.4%.
Regarding `O=C(NCc1ccncc1)Nc1ccc(Cl)cc1Cl`, the “hERG current change (%, negative = inhibition) at 10uM” value stood at 0.195%.
As to `CNc1oc(-c2ccccc2)nc1C#N`, the “hERG current change (%, negative = inhibition) at 10uM” value came to 11.8%.
Take `Cc1cccc(-n2ncc3c(NCCc4ccc(S(N)(=O)=O)cc4)ncnc32)c1`: the “hERG current change (%, negative = inhibition) at 10uM” value was -20.9%.
Take `Cc1ccc(S(=O)(=O)Oc2ccccc2/C=N/Nc2ccc(C(=O)O)cc2)cc1`: the “hERG current change (%, negative = inhibition) at 10uM” value worked out at 7.71%.
Take `CC1CCN(CC(=O)NC2CCCCC2)CC1.Cl`: the “hERG current change (%, negative = inhibition) at 10uM” value is given as 22.1%.
With `CCOCCCN1CC(C(=O)NCCc2ccccc2)CC1=O` (stereo not drawn), the “hERG current change (%, negative = inhibition) at 10uM” value was -4.9%.
The result for `CCOC(=O)Cc1csc(NC(=O)Cc2ccc([N+](=O)[O-])cc2)n1` reads -64.9%; that for `CCN=C1SC(CC(=O)NC(C)C)C(=O)N1CC` (stereo not drawn), -23.9%.
`Cc1ccccc1N1C(=O)C2C3C=CC(CC3)C2C1=O` (stereo not drawn): the “hERG current change (%, negative = inhibition) at 10uM” value came out at 16.4%.
In the case of `Cc1ccc(C)n1NC(=O)c1cccc(Cl)c1` it was 0.42%; in that of `CCC[N+]12CCC(CC1)C(C(O)(c1ccccc1)c1ccccc1)C2.[Br-]` (stereo not drawn), -0.95%.
